Results on 85 molecules are retold here after ChEMBL document CHEMBL4888484, “Replenishing the malaria drug discovery pipeline: Screening and hit evaluation of the MMV Hit Generation Library 1 (HGL1) against asexual blood stage Plasmodium falciparum ,using a nano luciferase reporter read-out” (2022).

The campaign covered roughly 150,000 compounds. About 540 (0.36%) showed an effect of 50% or more. This is one part of the list.

This experiment has as its system Plasmodium falciparum. The experiment can be described thus: Primary screen in NF54 nanoGlo assay, in single point, at 2uM, 72h; a lower Z score goes with more inhibition. The following applies: timepoint 72 hour. The format is functional, Erythrocyte.
With `C[C@H]1CCCN(c2c(C#N)c(=O)n(C)c(=O)n2C)CC1`, the “% Inhibition” value is listed as -11% and the Z score is on record as 1.44.
On the same counts, the results for `COCCC1(c2noc(-c3cn([C@@H]4COC[C@H]4OC)nn3)n2)CCC1` are 5% and -0.68.
For `Cc1ccc(CS(=O)(=O)Nc2ccc(N(C)C)nc2)cc1F` the same measures were -7% and 1.26.
On the same counts, the results for `CCCCc1c(C)nc(N)nc1NCCc1cscn1` are 7% and -1.45.
Take `CC1(C)CCC[C@H](NC(=O)c2cccnc2O)C1`: the “% Inhibition” value was -5% and the Z score amounted to 0.93.
On the same counts, the results for `Cc1ccc(C)c(NC2=NC(N)=NC3(CCCCC3)N2)c1` are 1% and -0.07.
On the same counts, the results for `CC1Cc2ccc(F)cc2CN1CC1CCCN(S(C)(=O)=O)C1` (stereo not given) are 8% and -1.39.
On the same counts, the results for `Cc1ncn(CCc2cn(C)nn2)c1C` are -3% and 0.5.
Consider `CCOC(=O)C[C@H]1COCCN1Cc1c[nH]nc1-c1ccc2cc(OC)ccc2c1`, for which the “% Inhibition” value was determined as 4% and the Z score is on record as -0.38.
For `COCc1nc([C@H]2CCOC2)cc(N(C)Cc2csc(C(C)C)n2)n1` the same measures were 0% and 0.05.
For `COC[C@H]1CCCN1[C@@H]1[C@H](O)[C@H](CO)O[C@@H]1CNS(=O)(=O)c1ccc(Cl)cc1` the same measures were 16% and -1.83.
On the same counts, the results for `Cc1ccc(CCCCC(=O)N[C@@H](C)c2ccncc2)cc1` are 0% and -0.06.
Consider `COc1cc(-c2noc(CCC(=O)O)n2)ccc1OCc1ccccc1`, for which the “% Inhibition” value is 26% and the Z score is listed as -2.96.
Regarding `COc1ccccc1CNC(=O)CN1CCN(C)c2ccc(F)cc21`, the “% Inhibition” value came out at 0% and the Z score stood at 0.05.
On the same counts, the results for `Cc1cnc(N2CCn3nc(CO)cc3C2)nc1N(C)C` are -23% and 2.04.
For `COc1cccc2sc(OC3CN(C(=O)c4cccs4)C3)nc12` the same measures were -6% and 0.96.
Regarding `O=C(N[C@@H](Cc1ccccc1)C(=O)O)C1COc2ccccc2O1` (stereo not given in full), the “% Inhibition” value is -9% and the Z score is given as 1.08.
On the same counts, the results for `O=C(Cc1cccnc1)NC[C@H]1Cn2cc(-c3ccccc3)nc2CO1` are -4% and 0.67.
For `CCN(C)c1ccccc1CNC(=O)NC1CC2CCC1O2` (stereo not given) the same measures were 4% and -0.36.
As for `COc1cn(CC(N)=O)c(CN2CCCCC2)cc1=O`, the “% Inhibition” value was -7% and the Z score amounted to 1.27.
For `CC(C)(C)[C@@H]1CN(C(=O)c2c[nH]nn2)CCO1` the same measures were -14% and 2.15.
On the same counts, the results for `CCCCCn1c(NCc2cc(Cl)ccc2O)nc2ccccc21` are 35% and -2.27.
For `CC1(C)CCN(C(=O)[C@@H]2NCc3ncncc32)CC1`, the “% Inhibition” value is -5% and the Z score is 1.
Take `O=C(COc1cccc2c1CCC[C@@H]2O)Nc1cccc(S(=O)(=O)N2CCCC2)c1`: the “% Inhibition” value is on record as -13% and the Z score is reported as 1.72.
On the same counts, the results for `CC[C@H](C)c1ccc(O)c(NC(=O)COc2ccc(Cl)cc2-n2cnnc2)c1` are -6% and 0.84.
For `Cc1ccnn1CCN(Cc1ccc2[nH]ccc2c1)C1CC1` the same measures were -15% and 3.03.
For `CCCn1nccc1-c1nc(Cc2cc(C(F)(F)F)ccn2)no1` the same measures were -9% and 1.28.
For `O=C(Nc1ccc(F)c(Cl)c1)c1nc(-c2cn(-c3ccccc3)nn2)no1`, the “% Inhibition” value is on record as -12% and the Z score came out at 2.36.
For `O=c1[nH]cnc2[nH]nc(NS(=O)(=O)c3ccc4c(c3)CCCC4)c12` the same measures were -13% and 1.35.
On to `O=S(=O)(c1ccc2c(c1)OCCCO2)N1CC[C@H](c2ccsc2)C1`, for which the “% Inhibition” value is listed as -4% and the Z score is 0.68.
For `NC(=O)c1ccc(S(=O)(=O)NCCN2CCCCCC2=O)cc1` the same measures were -6% and 1.19.
On the same counts, the results for `Cc1nn(C)c2nc(N3CC[C@H](N4CCCC4)C3)sc12` are -10% and 1.99.
For `NC(=O)[C@H](Cc1ccc(O)cc1)NC(=O)[C@@H]1CCCN2CCCC[C@H]12` the same measures were -9% and 1.06.
In the case of `COc1ccc(CN2CCC(C(=O)O)(n3cc(C)cn3)CC2)c(OC)c1`, the “% Inhibition” value was -1% and the Z score came to 0.14.
On the same counts, the results for `CC[C@H](C)N(C(=O)CCN)C1CCCC1` are -13% and 1.55.
For `CC1(C)[C@@H]2CC[C@]13CS(=O)(=O)N(C(=O)CCc1cccnc1)[C@@H]3C2` the same measures were -7% and 0.88.
As to `O=C(NCCc1cscn1)c1cnn(Cc2ccccc2)c1`, the “% Inhibition” value is recorded as -13% and the Z score was found to be 1.82.
On the same counts, the results for `O=C(c1ccc2[nH]cnc2c1)N1C[C@@H]2CC[C@H]1CN(Cc1cscn1)C2` are 4% and -0.53.
For `O=C(c1ccc2nccnc2c1)N1CCC(Oc2ccc(Cl)cc2)CC1`, the “% Inhibition” value is given as -13% and the Z score is reported as 2.52.
For `CCN(CC)CCNC(=O)c1cc(C(c2ccccc2)c2ccccc2)no1` the same measures were -9% and 1.19.
For `O=C1CC[C@H](N2CCN(Cc3ccccc3)CC2)CCN1CCOc1ccccc1` the same measures were -12% and 1.59.
`COc1ccc(S(=O)(=O)NCc2nnc(C(=O)Nc3ccc(F)cc3F)s2)cc1`: the “% Inhibition” value worked out at 24% and the Z score is recorded as -2.74.
For `Cc1ccc(S(=O)(=O)N2CCC[C@H](n3ccnn3)C2)o1` the same measures were -7% and 0.93.
For `O=C1CN(Cc2ncc(-c3ccccc3)o2)CCN1` the same measures were 3% and -0.3.
For `Cc1ccc2c(Nc3ccc(OCc4ccccc4)cc3)c(C(=O)N3CCOCC3)cnc2n1` the same measures were -8% and 1.26.
Turning to `Cc1ccc2nc(N3CCC[C@H](O)C3)c(CN3CCOC(C)(C)C3)cc2c1`, the “% Inhibition” value is listed as -9% and the Z score was 1.8.
On the same counts, the results for `COc1c(C)cc(C(=O)[C@H]2CCCN(C(=O)CCc3ccncc3)C2)cc1C` are -12% and 1.82.
On the same counts, the results for `CCc1c(C)nn2c(=O)cc(-c3nc(C)c[nH]3)[nH]c12` are -4% and 0.49.
With `CC(C)N1CCO[C@@H](CCNC(=O)[C@H]2CC[C@H](C)CC2)C1`, the “% Inhibition” value is -1% and the Z score was 0.25.
With `O=C(NCc1cn2c(n1)C(=O)N(Cc1ccccc1)CC2)c1cnccn1`, the “% Inhibition” value was -13% and the Z score is 1.72.
In the case of `Cc1nc(CNC(=O)[C@H](O)c2ccccc2Cl)n[nH]1`, the “% Inhibition” value is given as 4% and the Z score is -0.69.
On the same counts, the results for `CCCC[C@H](CC)CNC(=O)C(=O)Nc1nccs1` are 2% and -0.22.
Take `N#Cc1ccc(Br)cc1Br`: the “% Inhibition” value is 5% and the Z score is -0.72.
On the same counts, the results for `Cc1cccc2c1nc1n2[C@@H](CN(Cc2c[nH]c3ccccc23)Cc2c[nH]c3ccccc23)COC1` are -1% and 0.16.
For `c1cc2c(cc1-c1csc(N3CCOCC3)n1)OCCO2`, the “% Inhibition” value was -20% and the Z score was 1.68.
For `CC1CCCC(N(CC(=O)Nc2ccc(S(N)(=O)=O)cc2)Cc2ccc3c(c2)OCO3)C1C` (stereo not given) the same measures were -18% and 2.1.
For `COc1ccc(-c2nn(-c3ccccc3)cc2CC(=O)N2CC[C@H](CN)C2)cc1` the same measures were -9% and 1.64.
For `Cc1ccc(O[C@H]2CCCN(C(=O)c3cc(=O)[nH]c(=O)[nH]3)C2)nn1` the same measures were -14% and 2.4.
For the molecule `O=C(c1cn(-c2cccc(Cl)c2F)nn1)N1CCC[C@@H]1Cn1ccnc1`, the “% Inhibition” value is recorded as 4% and the Z score is -0.62.
On the same counts, the results for `Cc1nc(CC(C)C)c(NC(=O)N(C)C[C@H](O)C(F)(F)F)s1` are -1% and 0.19.
On the same counts, the results for `Nc1ncccc1CNS(=O)(=O)c1cccc(C(=O)N2CCC2)c1` are 0% and -0.02.
As for `Cc1cccc(S(=O)(=O)N2C[C@H](c3noc(C)n3)C3(CCOCC3)C2)c1`, the “% Inhibition” value was determined as 0% and the Z score is 0.
For `CCOc1ccc(N2CCC(C)(C)C2)nn1`, the “% Inhibition” value is -8% and the Z score is 0.76.
For `CN1CCN(CC2CCN(C(=O)NCc3cccc(F)c3)CC2)CC1` the same measures were -10% and 1.
Regarding `CCN(CC(=O)c1c(N)n(CC)c(=O)[nH]c1=O)c1ccc(F)cc1`, the “% Inhibition” value is reported as -7% and the Z score is reported as 1.22.
On the same counts, the results for `CC1CCC2C(CCCN2C(=O)c2ccc(CS(C)(=O)=O)o2)C1` (stereo not given) are -7% and 1.22.
For `CC(=O)NCCNS(=O)(=O)c1ccc(C)cc1Br` the same measures were -7% and 0.92.
On the same counts, the results for `CCN(CC)CC(=O)N1CCN(c2nncc3ccccc23)CC1` are -9% and 1.69.
Regarding `CC1CCN(C(=O)c2ccc3c(c2)N(Cc2ccccc2)C(=O)CO3)CC1`, the “% Inhibition” value is -5% and the Z score came out at 0.69.
Consider `CC1CN(C(=O)CNC2CC(C)(C)OC2(C)C)CC(C)O1` (stereo not given), for which the “% Inhibition” value is reported as -1% and the Z score was 0.09.
For `CCCS(=O)(=O)Nc1cccn2ncnc12` the same measures were -6% and 0.63.
As to `O=C(Cc1cccnc1)NCc1cccnc1-c1ccsc1`, the “% Inhibition” value is given as 1% and the Z score is -0.15.
For `Cc1cc(C(=O)Nc2onc(C3CCCCC3)c2C)nc(C(F)(F)F)n1` the same measures were 2% and -0.29.
For `CS(=O)(=O)N1C[C@@H]2OC(=O)N(CCc3ccc(F)cc3)[C@@H]2C1` the same measures were 15% and -1.95.
As to `CC[C@@]1(C(=O)NCc2cccc(COC3CCOCC3)c2)CCCN1`, the “% Inhibition” value is recorded as -9% and the Z score came out at 0.87.
As to `O=C([C@H]1CCO[C@@H]1c1ccncc1)N1CCN(c2ccc(F)cc2)CC1`, the “% Inhibition” value is recorded as -12% and the Z score was found to be 2.03.
With `CC1Cc2ccccc2N1C(=O)C1CCS(=O)(=O)C1` (stereo not given), the “% Inhibition” value is recorded as 5% and the Z score is -1.02.
Regarding `C[C@H]1CCCN(C(=O)Nc2cnn(-c3ccccc3)c2)C1`, the “% Inhibition” value is 6% and the Z score is listed as -1.2.
For `Oc1cc(CN[C@H]2CCc3c(O)cccc32)nc(C2CC2)n1` the same measures were -12% and 2.24.
On to `Cc1cc(NC(=O)CN2CCC[C@H]2c2nc(-c3ccccn3)no2)no1`, for which the “% Inhibition” value is on record as -7% and the Z score is listed as 0.92.
On the same counts, the results for `CC(C)Cc1nc(CNC(=O)c2ccncc2F)no1` are 10% and -1.82.
On to `CCC(=O)N(Cc1csc(COc2ccc(Cl)cc2)n1)C1CC1`, for which the “% Inhibition” value is listed as -2% and the Z score amounted to 0.23.
For `CCOC1(C(=O)Nc2cnc3ccccc3c2)CCCC1` the same measures were 19% and -2.2.
For `CC[C@H](NC(=O)NCc1scnc1C)c1ccc(F)cc1F` the same measures were -7% and 1.33.
On the same counts, the results for `O=C1CCC2(CCN(C(=O)c3ccon3)CC2)CN1Cc1cccnc1` are 5% and -0.6.

Usually % Inhibition stands for the relative decrease from the control value, in per cent.
